Laboratory results reported in paper PMC4336329 (PLoS ONE, 2015).
Hit rate of the full screen: of about 310,000 compounds, about 14,000 (4.5%) showed an effect of 50% or more. Effects have a minus sign here. The list shows a part of the results.

The molecules below were run against human ether-à-go-go-related gene (hERG) potassium channel (human, UniProt Q12809) (assay: primary screen, population patch clamp on CHO cells stably expressing hERG).
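Also: peak tail current of the secondary pulse compared with the same well before compound.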

Chain of human ether-à-go-go-related gene (hERG) potassium channel (Q12809 whole entry, looked up): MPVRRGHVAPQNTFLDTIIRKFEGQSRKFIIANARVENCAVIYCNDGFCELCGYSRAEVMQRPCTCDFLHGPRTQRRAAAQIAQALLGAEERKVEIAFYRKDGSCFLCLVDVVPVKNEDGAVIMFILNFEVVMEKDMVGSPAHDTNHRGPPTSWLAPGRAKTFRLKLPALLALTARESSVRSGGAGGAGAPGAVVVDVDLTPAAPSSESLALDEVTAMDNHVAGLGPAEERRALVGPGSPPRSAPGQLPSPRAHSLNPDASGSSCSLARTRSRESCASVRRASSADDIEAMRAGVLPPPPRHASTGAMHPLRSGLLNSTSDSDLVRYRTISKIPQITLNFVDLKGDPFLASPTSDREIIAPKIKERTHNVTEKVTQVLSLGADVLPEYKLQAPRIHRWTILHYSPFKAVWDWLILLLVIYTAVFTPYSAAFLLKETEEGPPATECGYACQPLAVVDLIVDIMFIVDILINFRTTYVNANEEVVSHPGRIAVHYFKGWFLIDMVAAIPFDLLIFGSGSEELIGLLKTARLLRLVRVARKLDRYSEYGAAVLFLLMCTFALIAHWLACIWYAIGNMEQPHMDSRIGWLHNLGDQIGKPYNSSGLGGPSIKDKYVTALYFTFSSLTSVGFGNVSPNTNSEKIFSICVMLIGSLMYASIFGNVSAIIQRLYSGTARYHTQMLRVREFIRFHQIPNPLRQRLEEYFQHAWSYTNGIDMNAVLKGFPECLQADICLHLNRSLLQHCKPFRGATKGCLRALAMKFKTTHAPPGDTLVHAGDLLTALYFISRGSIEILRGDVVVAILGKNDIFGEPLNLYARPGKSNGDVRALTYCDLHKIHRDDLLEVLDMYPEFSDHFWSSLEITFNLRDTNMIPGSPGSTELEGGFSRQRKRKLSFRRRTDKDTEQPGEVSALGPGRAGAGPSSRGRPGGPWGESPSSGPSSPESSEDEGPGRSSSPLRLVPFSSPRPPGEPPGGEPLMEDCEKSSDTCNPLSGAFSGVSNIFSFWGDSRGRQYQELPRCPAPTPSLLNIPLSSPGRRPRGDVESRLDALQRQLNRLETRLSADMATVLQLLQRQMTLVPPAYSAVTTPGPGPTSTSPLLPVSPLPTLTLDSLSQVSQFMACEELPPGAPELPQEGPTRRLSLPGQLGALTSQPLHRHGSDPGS

SMILES | hERG current change (%, negative = inhibition) at 10uM
CCOC(=O)CC1C(=O)NCCN1C(=S)Nc1ccccc1 (centres unmarked) | 10.3%
Cc1ccc(Nc2cc(C)c3c(O)cccc3n2)cc1C.Cl | 19%
O=C(NC12CC3CC(CC(C3)C1)C2)c1cc(F)c(F)cc1Cl | 9.46%
Cc1ccc2[nH]c(=O)c(Cc3ccccc3)c(O)c2c1 | 9.62%
O=C(NCc1ccco1)Oc1ccccc1 | 2.24%
O=C(CSc1nnc(CNC(=O)c2ccccc2)o1)NCc1ccc(F)cc1 | 4.25%
COc1cccc(-c2nc(C(N)=O)c3[nH]c(=O)n(-c4cccc(Cl)c4)c3n2)c1OC | 3.23%
Cc1ccc(NC(=O)CN(C)C(=O)c2n[nH]c(=O)c3ccccc23)cc1 | -26.3%
Cc1ccc(N(CC(=O)NCc2ccccc2Cl)S(=O)(=O)c2cccs2)cc1 | 9.48%
Cc1ccc(S(=O)(=O)NC(C)(C)CSc2nnc(N)s2)cc1 | -6.4%
Cc1c(C(C)(C)O)[nH]c2ccc(C#N)cc12 | 26.4%
O=C(CCS(=O)(=O)c1ccc(Cl)cc1)Nc1ccc(N2CCOCC2)cc1 | -6.95%
COc1coc(C(O)CN)cc1=O (centres unmarked) | 4.57%
COc1ccc(-c2cc(-c3ccccc3)c(C#N)c(S(C)(=O)=O)n2)cc1 | -19.4%
Nc1cc(N)nc(SCC(=O)c2ccc3c(c2)NC(=O)CO3)n1 | 8.41%
Cc1cc(=O)[nH]c(N/N=C/c2ccccn2)n1 | 13%
Clc1ccccc1Cc1noc(CN2CCN(Cc3ccccn3)CC2)n1 | 2.78%
COc1ccc(NC(=S)N2CCN(C(=O)C3CCCO3)CC2)cc1 (centres unmarked) | 11.8%
CNC(=S)Nc1cccc(S(=O)(=O)NC2=NCCC2)c1 | -7.6%
C#CCOc1ccc(/C=C2\SC(=S)N(Cc3cccnc3)C2=O)cc1 | 15.9%
CCn1c(=O)c([N+](=O)[O-])c(NC2CCS(=O)(=O)C2)c2ccccc21 (centres unmarked) | 5.85%
O=C(CCCN=C1NS(=O)(=O)c2ccccc21)OCc1ccccc1 | -31%
Cc1ccc(C(=O)CSc2nnc3c4ccccc4nc(Cc4ccccc4)n23)cc1 | 7.05%

SMILES | hERG current change (%, negative = inhibition) at 10uM
CC(C)(C)c1cc(CCC(=O)NCc2ccncc2)cc(C(C)(C)C)c1O | 3.59%
COC(=O)c1sccc1NC(=O)CSc1nnnn1-c1ccccc1C | 8.65%
COc1cccc(N(CC(=O)Nc2ccccc2C)S(C)(=O)=O)c1 | 0.38%
Cc1ccc(NC(=O)C/C(N)=N/O)cc1Cl | 15.4%
C/C=C/c1ccc(OCCNCc2ccccc2)c(OC)c1.O=C(O)C(=O)O | -39.8%
COc1ccc(/C=C/c2c([N+](=O)[O-])c(=O)n(C)c(=O)n2C)cc1 | 19.7%
O=C(NCCCN1CCOCC1)c1cc(-c2ccccc2)nc2ccccc12 | -18.3%
CCC(Sc1nc(C)cc(C)n1)C(=O)Nc1ccc(S(N)(=O)=O)cc1 (centres unmarked) | -6.82%
Cc1ccc(NC(=O)Cc2ccc([N+](=O)[O-])cc2)c(Br)c1 | -0.402%
COC(=O)CCC(=O)NNC(=O)c1cccc(Br)c1 | 0.11%
O=C1c2cccnc2C(=O)N1c1ccccc1-c1ccccc1 | 17.3%
Cc1cc(C)n2nc(SCCC(=O)NCCc3ccccc3)nc2n1 | -6%
CCc1ccc(C(=O)NN(C(=O)c2ccc(CC)cc2)C(C)(C)C)cc1 | -7.52%
C=CCNC(=O)CSc1nnc(-c2ccccn2)n1Cc1ccccc1 | 3.01%
CC(NC(=O)CN(C)S(=O)(=O)c1ccc(Br)s1)c1ccccc1 (centres unmarked) | 12.8%
CCNS(=O)(=O)c1ccc(CCC(=O)N2CCN(c3ccccc3)CC2)cc1 | -16.8%
CC1c2cccn2CCN1S(=O)(=O)c1ccccc1 (centres unmarked) | 5.9%
O=C(NC(=S)Nc1cc(Cl)ccc1O)c1cccc(Br)c1 | 16.3%
O=C(NCc1ccco1)c1cnn2c(C(F)(F)F)cc(-c3ccco3)nc12 | -12.6%
Cc1ccc(OCCNC(=O)c2ccccc2O)cc1 | 8.04%
O=C(/C=C/c1ccccc1)NC(NC(=S)Nc1ccc(Cl)cc1)C(Cl)(Cl)Cl (centres unmarked) | 15%
O=c1cc(-c2ccccc2)nc2nc[nH]n12 | 16.3%
CC(=O)c1cn(S(=O)(=O)c2ccccc2)c2ccccc12 | -6.8%

SMILES | hERG current change (%, negative = inhibition) at 10uM
CCOc1ccc(NC(=O)COC(=O)c2cccnc2)cc1 | 7.48%
O=C(CN1CCN(Cc2ccccc2)CC1)N/N=C/c1cccnc1 | -12.8%
CCCN1Cc2cccc(C(=O)Nc3cc(OC)cc(OC)c3)c2C1=O | 4.46%
CCOc1nc2c(c(=O)n(C)c(=O)n2C)n1Cc1ccccc1Cl | -6.62%
COCc1ccc(C(=O)NC2CCCc3c2cnn3-c2ccc(C)c(C)c2)o1 (centres unmarked) | -9.75%
Cc1cccc(NC(=O)c2cccc(S(=O)(=O)N(C)c3ccccc3)c2)n1 | -28.7%
CSc1ccc(CNc2ncc(-c3cccc([N+](=O)[O-])c3)n2C)cc1.O=C(O)C(=O)O | -66.4%
O=C(OCC(=O)c1c[nH]c2ccccc12)c1cc(Br)ccc1O | -7.34%
c1ccc(-c2nc3nonc3c3nc4ccccc4n23)cc1 | -1.83%
Cc1cc(OCC(=O)Nc2ccc3c(c2)OCCO3)ccc1Cl | 8.15%
N/C(=N\OC(=O)Cc1ccc(Cl)cc1)c1ccncc1 | -17.1%
COc1ccc2oc(C(=O)OCC(=O)NC3CCCCC3)c(C)c2c1 | 0.557%
O=C(CC1(CC2=NS(=O)(=O)c3ccccc3N2)CCCC1)NCCc1ccccc1 | -26.9%
CCc1ccc(-n2c(C)cc(/C=N/NC(=O)OC)c2C)cc1 | -5.19%
CC(C)CN1CCN(Cc2nc(C(C)C)cs2)CC1CCO (centres unmarked) | 1.27%
COc1ccc(Cc2nnc(SCC(=O)Nc3c(C)cccc3C)[nH]c2=O)cc1 | 13.6%
CCN(CC)CC(=O)Nc1sc(C)cc1C(=O)c1ccccc1 | 14.3%
N#C/C(=C/c1cn(-c2ccccc2)nc1-c1cccc(OCc2ccccc2)c1)C(=O)NCCCn1ccnc1 | -1.13%
COc1ccc2[nH]c(=O)c(C(c3nnnn3C(C)(C)C)N(Cc3ccco3)CC3CCCO3)cc2c1 (centres unmarked) | -6.61%
CC1Cc2ccccc2N1C(=O)CSc1nnc(N)s1 (centres unmarked) | 13%
CC1CC(=O)N(CC(=O)Nc2ccccc2F)c2ccccc2S1(=O)=O (centres unmarked) | 5.23%
O=C(COc1ccccc1)Nc1ncccn1 | 2.49%
CCOC(=O)C1(CCOc2ccccc2)CCN(Cc2cccc(O)c2)CC1 | -63.1%

SMILES | hERG current change (%, negative = inhibition) at 10uM
CN(c1ccc([N+](=O)[O-])cc1/C=N/NC(=O)COc1ccccc1)C1CCCCC1 | 7.86%
COc1cccc(NC(=O)c2ccc3c(c2)OCO3)c1 | 10.1%
COc1ccc(CN(C)C(=O)c2cc(S(=O)(=O)N3CCOCC3)ccc2N2CCCC2)cc1 | -35.2%
COc1ccc2ccccc2c1-c1csc(N)n1 | 25.3%
COc1ccc(/C=N/N(CCC(=O)NC(C)(C)C)C2=NS(=O)(=O)c3ccccc32)cc1 | -5.23%
CCOc1ccc(CC(=O)OCN2C(=O)c3ccccc3C2=O)cc1 | 9.22%
CCOc1cc(C)nc(N2CCCC(C(=O)NCc3ccccc3F)C2)n1 (centres unmarked) | -15.5%
CCN1CCN(S(=O)(=O)c2ccc(C)c([N+](=O)[O-])c2)CC1 | -0.352%
COc1ccc(C(C(=O)NC2CCCC2)N(C(=O)c2snc(-c3ccc(F)cc3)c2N)c2ccc(F)cc2)cc1 (centres unmarked) | 1.29%
C=CCNC(=O)c1cccc(C(F)(F)F)c1 | 20.5%
Br.COc1ccc(C2CC(c3cccs3)=NN2c2nc(-c3ccccc3)cs2)cc1OC (centres unmarked) | 2.47%
CC(=O)c1cccc(NC(=O)C2CCCN2S(=O)(=O)c2cccc3nsnc23)c1 (centres unmarked) | -6.42%
O=C(c1ccc(F)cc1)C1CCN(S(=O)(=O)c2ccccc2)CC1 | -43.1%
COc1cc(NC(=O)CCc2nnc3ccc(N4CCN(c5cccc(OC)c5)CC4)nn23)cc(OC)c1 | 7.07%
Cn1c(=O)c2c(nc(NCc3ccc4c(c3)OCO4)n2Cc2ccccc2Cl)n(C)c1=O | 7.49%
CCCCC(=NCCc1c(C)[nH]c2ccccc12)C1=C(O)CC(c2ccccc2)CC1=O (centres unmarked) | 3.52%
O=C(CC(Cc1ccccc1)C(=O)O)Nc1ccccc1 (centres unmarked) | 25.2%
COc1cccc(-n2nc(-c3ccnn3-c3cccc(Cl)c3)c(=O)n(C)c2=O)c1 | -5.04%
O=C(N/N=C\c1ccc(Br)o1)C1COc2ccccc2O1 (centres unmarked) | -6.99%
CCc1nc(N2CCN(C(C)=O)CC2)c(C#N)c2c1COC(C)(C)C2 | -0.704%
